The supplement of paper PMC12217912
The other results are listed elsewhere or left out. Sequences were assembled here from the parent chain. Inactive controls read about 0.05.

B1: TEV protease; numbered along this chain (parent)
chain: MGESLFKGPRDYNPISSSICHLTNESDGHTTSLYGIGFGPFIITNKHLFRRNNGTLVVQSLHGVFKVKDTTTLQQHLVDGRDMIIIRMPKDFPPFPQKLKFREPQREERICLVTTNFQTKSMSSMVSDTSCTFPSGDGIFWKHWIQTKDGQCGSPLVSTRDGFIVGIHSASNFTNTNNYFTSVPKNFMELLTNQEAQQWVSGWRLNADSVLWGGHKVFMVKPEEPFQPVKEATQL

Variants of: B1
Assay: raw area under fraction-flipped curve 0-4 h after induction (AUC4h, not background-subtracted), DNA-recorder readout of cleavage of the substrate (dimensionless); higher = more cleavage of the substrate by the protease variant
Conditions: temperature: 34 °C; time window: 0-4 h after rhamnose induction
Method: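 In vivo DNA recorder in E. coli TOP10(DE3) ΔrhaA at 34 °C. Each TEVp single-site mutant (parent TEVp 0) is paired with a single-site variant of the 7-mer TEVs (canonical ENLYFQ|S). The substrate sits between flexible linkers in a Bxb1-sfGFP-TEVs-SsrA fusion, so cleavage stabilises Bxb1 and speeds flipping of a recombination array, read by NGS. The value is the raw area under the fraction-flipped curve over 0-4 h after rhamnose induction (AUC4h), with ≥20 reads per time point. It is not background-subtracted; inactive controls average about 0.047.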
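Note: Bxb1 expression induced with 0.2% (w/v) L-rhamnose at OD600 near 0.5, cultures sampled hourly, flipped fraction per protease–substrate barcode pair counted by paired-end Illumina sequencing.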

| Variant | area with substrate EALYFQS | area with substrate ECLYFQS | area with substrate EDLYFQS | area with substrate EGLYFQS | area with substrate EHLYFQS | area with substrate EILYFQS | area with substrate EKLYFQS | area with substrate EMLYFQS | area with substrate EPLYFQS | area with substrate EQLYFQS | area with substrate ERLYFQS | area with substrate ESLYFQS | area with substrate EVLYFQS | area with substrate EWLYFQS | area with substrate EYLYFQS | area with substrate ELLYFQS | area with substrate EELYFQS | area with substrate ETLYFQS | area with substrate EFLYFQS |
| --- | --- | --- | --- | --- | --- | --- | --- | --- | --- | --- | --- | --- | --- | --- | --- | --- | --- | --- | --- |
| H143V | 0.0737 | 0.03 | 0.0946 | 0.0669 | 0.094 | 0.0736 | 0.0752 | 0.0799 | 0.0667 | 0.0857 | 0.0779 | 0.0628 | 0.0733 | 0.0704 | 0.0507 |  |  |  |  |
| W144E | 0.092 | 0.0834 |  |  |  | 0.0836 | 0.091 | 0.0814 | 0.0566 | 0.0904 | 0.0841 | 0.0844 | 0.0741 | 0.0793 |  | 0.0653 |  |  |  |
| Q146E | 0.106 | 0.0853 | 0.111 |  | 0.112 | 0.129 | 0.109 | 0.109 |  | 0.109 |  | 0.113 | 0.1 |  | 0.224 |  | 0.133 |  |  |
| Q146G | 0.137 | 0.135 | 0.153 | 0.098 |  |  | 0.091 |  | 0.155 |  |  | 0.0911 |  |  | 0.151 | 0.0988 | 0.156 | 0.124 |  |
| Q146Y | 0.117 | 0.0748 |  |  |  | 0.0947 |  |  | 0.133 | 0.128 |  | 0.0936 | 0.103 | 0.0929 | 0.0104 |  | 0.183 |  |  |
| D149A | 0.146 | 0.0617 | 0.122 | 0.0591 |  |  | 0.0681 |  | 0.0919 |  |  | 0.0991 | 0.0984 | 0.0963 | 0.109 |  | 0.112 |  |  |
| D149F | 0.088 | 0.0842 |  | 0.0635 | 0.0867 | 0.0749 | 0.0476 |  |  | 0.0785 | 0.0683 |  | 0.0664 | 0.0785 |  | 0.0773 |  |  |  |
| D149W | 0.101 |  | 0.103 | 0.0549 | 0.0728 | 0.0445 | 0.0712 | 0.0557 | 0.0817 | 0.0681 |  | 0.0462 | 0.0612 | 0.0816 |  |  |  | 0.0553 |  |
| G150S | 0.0687 | 0.0553 | 0.0705 | 0.0702 | 0.06 |  | 0.0452 | 0.0983 | 0.0771 | 0.0566 |  | 0.069 | 0.0586 | 0.0666 |  | 0.0553 |  | 0.0984 |  |
| Q151K | 0.0698 | 0.1 | 0.116 |  | 0.087 | 0.0864 |  | 0.0737 | 0.103 | 0.106 | 0.0853 | 0.0776 |  | 0.06 |  |  | 0.0708 |  |  |
| G153A | 0.0591 | 0.0572 |  |  |  |  | 0.0665 | 0.0586 |  |  |  | 0.0612 |  |  |  |  | 0.051 |  |  |
| G153H | 0.0388 | 0.0284 | 0.053 |  |  | 0.0494 | 0.0454 | 0.0399 |  | 0.0474 |  | 0.0528 | 0.0388 | 0.0373 | 0.0441 |  |  | 0.0472 | 0.0328 |
| P155T | 0.0486 |  |  |  | 0.0524 | 0.0587 |  |  | 0.0719 | 0.0743 |  | 0.0722 | 0.0628 |  | 0.0791 | 0.0762 |  | 0.0779 |  |
| L156A | 0.0996 | 0.108 |  |  |  | 0.092 |  | 0.1 |  | 0.12 |  | 0.0962 | 0.0836 | 0.0889 | 0.0799 |  | 0.0919 |  | 0.0801 |
| L156F | 0.0672 | 0.0677 |  |  | 0.0732 |  | 0.0558 | 0.0663 |  | 0.0591 | 0.0731 |  | 0.0445 |  | 0.0718 |  | 0.0522 |  |  |
